Values joined by “and” are separate entries in the source; they are usually repeats but may differ in a detail not shown here. Equal entries are not always repeated. The campaign covered roughly 420,000 compounds. About 50,000 (12%) were called active. Inconclusive means that the source gave no clear call. Such entries were picked first, then a sample of the others. Calls come from the whole dose curve; as a rule, active = well fitted inhibition curve with a large enough effect; inconclusive = small, poorly fitted or top-dose-only effect; inactive = flat fitted curve, though single readings scatter. Potencies beside an inconclusive call are fits to weak or partial responses and may not hold up.
Assay: qHTS for Inhibitors of human tyrosyl-DNA phosphodiesterase 1 (TDP1): qHTS in cells in presence of CPT; note: nearly all actives have a fitted effect of over 55% in size
Conditions: chicken DT40 Tdp1-/-;hTDP1 cells + 20 nM CPT, ATP luminescence, 48 h; activity change, negative = growth inhibition: at 46.2 µM (top of the series) unless noted
Summary of the method: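 Chicken DT40 Tdp1-/- cells complemented with human TDP1, 400 cells/well, exposed to compounds plus 20 nM camptothecin for at least 48 h at 37 C; viability read as ATP content by CellTiter-Glo luminescence.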
% is set by controls: 0 for no effect and ±100 for the full control effect; potency is the fitted concentration of half-maximal effect; tags give direction and shape of the fitted curve.

SMILES | Potency | activity change, negative = growth inhibition
C/C=C1\NC(=O)[C@H](C)NC(=O)[C@@H](NC(=O)[C@@H](Cc2ccc(O)cc2)NC(=O)[C@@H](NC(=O)/C(C)=C/C)C(C)C)[C@@H](C)OC(=O)[C@H](CCCCc2ccc(O)cc2)NC(=O)[C@@H](CCC(=O)OC)NC1=O | inactive | 
COC(=O)[C@@H]1[C@@H]2C[C@H]3c4[nH]c5ccccc5c4CCN3C[C@@H]2CC[C@@H]1O | inconclusive: 11.9 µM [inhibitor, single point] | 
COc1ccc(CNC(=O)CN2C(=O)NC(c3ccccc3)(c3ccccc3)C2=O)cc1 |  | inconclusive: -33.5% [inhibitor]
CCN(c1ccccc1)S(=O)(=O)c1ccc(Cl)c(NC(=O)CN2CCN(C)CC2)c1 | inconclusive: 18.4 µM [inhibitor, single point] | 
CCOC(=O)C1CCN(C(=O)Nc2cc(Cl)cc(Cl)c2)CC1 | active: 18.4 µM | 
COc1cccc(Cn2c(=O)cnc3cnc(Nc4cccc(OC)c4)nc32)c1 | inconclusive: 29.1 µM [inhibitor, single point] | 
CC(C)Oc1ccc(C(=O)NCC(=O)N2CCN(S(=O)(=O)/C=C/c3ccccc3)CC2)cc1 | inconclusive: 16.4 µM [inhibitor, single point] | 
CCc1ccc([C@@H]2CC=C(C(=O)O)[C@H](c3ccc(F)cc3)N2S(=O)(=O)c2ccc(C)cc2)cc1 | inactive | 
CC(=O)/C(C#N)=C1\NC(=O)C(Cc2cc(Cl)ccc2Cl)S1 (centres undefined) | inconclusive: 9.2 µM [inhibitor, partial curve, poor fit] | 
COc1ccc(N2C(c3cc(OC)cc(OC)c3)=Cc3ccccc3C2CC(C)=O)cc1 (centres undefined) | inconclusive: 18.4 µM [inhibitor, single point] | 
CCCn1c(NC(=O)c2cccc(C)c2C)nc2ccccc21 | active: 13 µM | 
COc1cc2nc(SCC(=O)Nc3ccccc3F)n3nc(-c4ccccc4)nc3c2cc1OC | inactive | 
COc1ccc(-c2c3c(=O)n(C)c(=O)n(C)c3cn2-c2cc(OC)ccc2OC)cc1 | inconclusive: 25.9 µM [inhibitor, partial curve, poor fit] | 
Cc1nn(-c2ccc(F)cc2)c2nc(N)c(C#N)c(-c3ccc(O)c(O)c3)c12 | active: 16.4 µM | 
Cc1ccc(-c2noc(CCC(=O)NCCN3CCc4ccccc4C3)n2)cc1 | inconclusive: 23.1 µM [inhibitor, single point] | 
CN1C[C@@H]2[C@@H]3C(=O)N(Cc4ccccc4)C(=O)[C@@H]3[C@](Cc3ccccc3)(C1=O)N2C(=O)c1ccccc1 | inconclusive: 32.6 µM [inhibitor, single point] | 
COc1ccc(-c2ccc(/C=C3\C(=O)N(c4ccccc4)N=C3c3ccccc3)o2)c([N+](=O)[O-])c1 | inconclusive: 11.6 µM [inhibitor, single point] | 
C[C@H](CO)N1C[C@H](C)[C@@H](CN(C)C(=O)CC2CC2)Oc2cc(Br)ccc2S1(=O)=O |  | inconclusive: -31.2% [inhibitor]
FC(F)Oc1ccc(/C=N/c2c(-c3ccc(OC(F)F)cc3)nc3n2CCS3)cc1 | inconclusive: 18.4 µM [inhibitor, single point] | 
Cc1onc(-c2ccccc2Cl)c1C(=O)Nc1ccc(Cl)cn1 | inconclusive: 29.1 µM [inhibitor, single point] | 
CCc1ccc(OCCNC(=O)OCc2ccccc2)cc1 | inactive | 
N#Cc1ccc(CN2CCN(C(=O)CCNS(=O)(=O)c3ccc(F)c(Cl)c3)CC2)cc1 | inconclusive: 5.8 µM [inhibitor, full curve, poor fit] | 

SMILES | Potency | activity change, negative = growth inhibition
CCOc1ccc(Cn2c(CNS(=O)(=O)c3cccc(Cl)c3)nc3cccnc32)cc1 | inconclusive: 29.1 µM [inhibitor, single point] | 
CCC(C(=O)OCC(=O)NC(=O)NC(C)(C)C)c1ccccc1 (centres undefined) | inconclusive: 20.6 µM [inhibitor, single point] | 
O=C(NC(=S)NC1CCCCC1)c1ccccc1 | inactive | 
CC1(C)Cc2c(sc3c2c(=N)n(Cc2ccco2)c(=O)n3Cc2ccc(F)cc2)CO1 | inconclusive: 29.1 µM [inhibitor, single point] | 
N#CC1=C(SCC(=O)NC2CC2)NC(=O)C(C#N)C12CCCCC2 (centres undefined) | inactive | 
CCOC(=O)c1ccc(S(=O)(=O)N2CCN(CC(O)COc3ccc(C#N)cc3)CC2)cc1 (centres undefined) | inconclusive: 29.1 µM [inhibitor, single point] | 
Cc1cccc(C(=O)OCC(=O)NCCCc2ccccc2)c1 | inactive | 
Cc1ccc(-n2c(SCC3CCCCO3)nnc2-c2ccco2)cc1 (centres undefined) | inconclusive: 29.1 µM [inhibitor, single point] | 
Cc1cc(N=Nc2ccc(Cl)cc2)cc(CN2CCOCC2)c1O | inconclusive: 25.9 µM [inhibitor, partial curve, poor fit] | 
Cc1[nH]c2ccccc2c1/C=N/NC(N)=S | inactive | 
COc1ccc(-c2nc3ccc(NS(=O)(=O)c4ccc(Cl)cc4)cc3o2)cc1 | inconclusive: 29.1 µM [inhibitor, single point] | 
COc1ccc(C2C3=C(CC(C)(C)CC3=O)Nc3c2c(=O)n(C)c(=O)n3C)cc1OC (centres undefined) | inconclusive: 29.1 µM [inhibitor, single point] | 
Cc1ccc(CNC(=O)c2ccc(CSCc3ccccc3C)o2)cc1 | inconclusive: 29.1 µM [inhibitor, single point] | 
CCOC(=O)C1CCN(C(=O)c2ccc(S(=O)(=O)Nc3ccccc3Cl)cc2)CC1 | inconclusive: 0.82 µM [inhibitor, full curve, poor fit] | 
CCOC(=O)c1cc2sccc2n1Cc1ccc(C#N)cc1 | inconclusive: 29.1 µM [inhibitor, single point] | 
Cc1ccc(C(=O)Cc2nc3ccccc3[nH]2)cc1 | inconclusive: 16.4 µM [inhibitor, single point] | 
COc1cc(/C=C2\SC(=S)N(NC(=O)c3ccccc3O)C2=O)ccc1O | inconclusive: 29.1 µM [inhibitor, single point] | 
COc1ccccc1C(=O)N1CCN(Cc2cc(=O)oc3cc(C)ccc23)CC1 | inconclusive: 29.1 µM [inhibitor, single point] | 
Cc1cc(C(=O)N/N=C/c2ccc(-c3ccc([N+](=O)[O-])cc3Cl)o2)n[nH]1 | inactive | 
CCOC(=O)C1(Cc2cccc(OC)c2)CCCN(Cc2c(C)nn(C(C)C)c2C)C1 (centres undefined) | inconclusive: 16.4 µM [inhibitor, single point] | 
COc1ccccc1CCNS(=O)(=O)c1cc2c3c(c1)C(C)C(=O)N3CCC2 (centres undefined) | inconclusive: 6.51 µM [inhibitor, single point] | 
O=C(COc1ccc2ccccc2c1Br)Nc1ccncc1 | active: 10.3 µM | 

SMILES | Potency | activity change, negative = growth inhibition
NS(=O)(=O)c1ccc(NC(=S)NC(=O)c2ccc(-c3ccccc3)cc2)cc1 | inconclusive: 29.1 µM [inhibitor, single point] | 
CSCCC(C(=O)NCc1ccccc1)n1c(-c2ccc3c(c2)CCO3)nc2ccccc21 (centres undefined) | inconclusive: 29.1 µM [inhibitor, single point] | 
O=C(Oc1cc(=O)oc2ccccc12)c1ccccc1 | active: 2.59 µM | 
O=[N+]([O-])c1c(C(Cl)Cl)nn(-c2ccccc2)c1N1CCCC1 | active: 20.6 µM | 
O=C(Nc1ccc(N2CCN(C(=O)c3ccco3)CC2)c(Cl)c1)c1c(F)c(F)c(F)c(F)c1F | active: 14.6 µM | 
CC(=O)c1c(C)[nH]c(C(=O)OCC(=O)Nc2nnc(-c3ccccc3)o2)c1C | inconclusive: 29.1 µM [inhibitor, single point] | 
CCCCNC(=O)c1nc(C2CCN(S(=O)(=O)c3ccc(Cl)cc3)CC2)oc1-c1ccccc1 | active: 7.31 µM | 
CCCCN(CC)C(=O)Cn1ncc2c3ccccc3n(CCC)c2c1=O | inconclusive: 25.9 µM [inhibitor, single point] and inconclusive: 20.6 µM [inhibitor, single point] | 
Cc1[nH]n(-c2ccc(Cl)cc2)c(=O)c1/C=N/c1nnc(-c2ccccc2)s1 | inconclusive: 20.6 µM [inhibitor, single point] | 
COc1ccccc1NC(=O)CSC1=Nc2ccccc2C2=NC(CCC(=O)NCc3cccs3)C(=O)N12 (centres undefined) | inconclusive: 18.4 µM [inhibitor, single point] | 
CCn1c2ccccc2c2cc(NC(=O)COc3ccccc3)ccc21 | active: 18.4 µM | 
O=C(NCc1ccccc1)c1c[nH]c2ccc(S(=O)(=O)Nc3ccc4c(c3)OCCO4)cc2c1=O | inactive | 
Cc1ccc2c(c1)cc(C(=O)NCc1ccccc1)n2C | inactive | 
CC1(OC(=O)C2CCCC2)C(=O)C=C2C=C(c3ccsc3)N(C3CCCC3)C=C2C1=O (centres undefined) | inconclusive: 29.1 µM [inhibitor, single point] | 
CCOc1cccc(C(=O)N(Cc2ccc(CC)cc2)C2CCS(=O)(=O)C2)c1 (centres undefined) | active: 18.4 µM | 
COc1cc(/C=C2\SC(N)=NC2=O)cc(OC)c1 | active: 18.4 µM | 
Cc1nn(CC(C)C)c2sc(C(=O)NC3CC(C)(C)NC(C)(C)C3)cc12 | inconclusive: 23.1 µM [inhibitor, single point] | 
COc1ccc(Cl)cc1NC(=O)CN(C)C(=O)CN1C(=O)NC(C)(C)C1=O | inactive | 
Cc1ccc(SCc2[nH]nc3c2C(C(C)C)C(C#N)=C(N)O3)cc1 (centres undefined) | inconclusive: 14.6 µM [inhibitor, partial curve] | 
CCN(CC(=O)Nc1c(F)cccc1F)C(=O)c1cccc(S(=O)(=O)N2CCCc3ccccc32)c1 | inconclusive: 25.9 µM [inhibitor, single point] | 
